The results in this text go back to a collection of fitness landscapes (doi:10.1126/science.1257360).

The other results are listed elsewhere or left out.

B1: PhoQ; a variant is named by its letters at X, in order, P23837 (parent)
chain: MKKLLRLFFPLSLRVRFLLATAAVVLVLSLAYGMVALIGYSVSFDKTTFRLLRGESNLFYTLAKWENNKLHVELPENIDKQSPTMTLIYDENGQLLWAQRDVPWLMKMIQPDWLKSNGFHEIEADVNDTSLLLSGDHSIQQQLQEVREDDDDAEMTHSVAVNVYPATSRMPKLTIVVVDTIPVELKSSYMVWSWFIYVLSANLLLVIPLLWVAAWWSLRPIEALAKEVRELEEHNRELLNPATTRELTSLVRNLNRLLKSERERYDKYRTTLTDLTHSLKTPLXXLQXXLRSLRSEKMSVSDAEPVMLEQISRISQQIGYYLHRASMRGGTLLSRELHPVAPLLDNLTSALNKVYQRKGVNISLDISPEISFVGEQNDFVEVMGNVLDNACKYCLEFVEISARQTDEHLYIVVEDDGPGIPLSKREVIFDRGQRVDTLRPGQGVGLAVAREITEQYEGKIVAGESMLGGARMEVIFGRQHSAPKDE

The variants in the test derive from B1. Put plainly: enrichment ratio after two sorts for PhoP signalling (ratio (wild type AVST 3.29)); higher = more functional. The note with it: with PhoP (E. coli).
DAHI: the enrichment ratio was no more than 0.25.

Turning to TASS, the enrichment ratio turned out to be 13.4. As for IKDR, the enrichment ratio is no more than 0.25. On to PNVE, for which the enrichment ratio was no more than 0.25. The result for HQAD reads no more than 0.25; that for NSNQ, no more than 0.25.

In the case of QCAL, the enrichment ratio worked out at 1.33. As to QCTF, the enrichment ratio was no more than 0.25.

As for DRMD, the enrichment ratio is no more than 0.25. The result for IYMT reads no more than 0.25; that for GEYA, no more than 0.25; that for PQDH, no more than 0.25. As to KMFL, the enrichment ratio is no more than 0.25. The result for VSRR reads no more than 0.25; that for FYQP, no more than 0.25; that for ISKK, no more than 0.25. The result for SHQC reads no more than 0.25; that for YHWV, no more than 0.25; that for PRFT, no more than 0.25. Regarding GYHS, the enrichment ratio was no more than 0.25. As for NSQY, the enrichment ratio is no more than 0.25.

Take VADG: the enrichment ratio was no more than 0.25. For the variant ILVN, the enrichment ratio is no more than 0.25. TCDS: the enrichment ratio was 1.7.

With QWMP, the enrichment ratio is no more than 0.25.

Consider DWPN, for which the enrichment ratio was no more than 0.25. For WFWG, the enrichment ratio was no more than 0.25. The result for YCGE reads no more than 0.25; that for RCYF, no more than 0.25; that for TRQD, no more than 0.25.

Consider DAIW, for which the enrichment ratio was no more than 0.25.

Turning to RFDQ, the enrichment ratio was no more than 0.25. For LKMA, the enrichment ratio was no more than 0.25. As for IHNA, the enrichment ratio was no more than 0.25.

For TMFM, the enrichment ratio was no more than 0.25. The result for TCEM reads 5.56; that for ARFF, no more than 0.25; that for PDCK, no more than 0.25. Consider VFPV, for which the enrichment ratio was no more than 0.25.

Take DRRW: the enrichment ratio is no more than 0.25.

For LDNA, the enrichment ratio is no more than 0.25.

On to GIAA, for which the enrichment ratio was determined as 2.08. With GNGN, the enrichment ratio is no more than 0.25. As for SIPR, the enrichment ratio was no more than 0.25. On to QKRW, for which the enrichment ratio was no more than 0.25. Regarding VAGT, the enrichment ratio is no more than 0.25. Take SQWR: the enrichment ratio is no more than 0.25. The result for INMD reads no more than 0.25; that for NACI, no more than 0.25. For WAPC, the enrichment ratio was no more than 0.25. Take VIVM: the enrichment ratio is no more than 0.25.

In the case of PLYE, the enrichment ratio was no more than 0.25.

Take QHNA: the enrichment ratio turned out to be 4.36.

For GDSE, the enrichment ratio was no more than 0.25. On to DQLR, for which the enrichment ratio is no more than 0.25.

WCML: the enrichment ratio is no more than 0.25. As for KLKE, the enrichment ratio was no more than 0.25. As to ISIN, the enrichment ratio is no more than 0.25. Regarding LEAR, the enrichment ratio is no more than 0.25. In the case of SYPT, the enrichment ratio is no more than 0.25. Turning to FHTY, the enrichment ratio is no more than 0.25.

Turning to EIQP, the enrichment ratio was no more than 0.25. In the case of EKLD, the enrichment ratio was no more than 0.25. Turning to YFTG, the enrichment ratio is no more than 0.25. The result for LSCL reads 0.9; that for GWDK, no more than 0.25. FFLF: the enrichment ratio is no more than 0.25. For DHRP, the enrichment ratio is no more than 0.25. For HFGL, the enrichment ratio is no more than 0.25. With YKRT, the enrichment ratio is no more than 0.25. The result for LQRW reads no more than 0.25. As to WNIL, the enrichment ratio is no more than 0.25.

Take MPTF: the enrichment ratio is no more than 0.25. For ASVT, the enrichment ratio is 15.2. As to MVRY, the enrichment ratio was no more than 0.25. For the variant YTWN, the enrichment ratio was no more than 0.25. The result for SVIH reads no more than 0.25.

Consider AGTH, for which the enrichment ratio is 5.3.

Consider GQTH, for which the enrichment ratio was no more than 0.25. In the case of VKCQ, the enrichment ratio is no more than 0.25. The result for LCKE reads no more than 0.25.

As for NKVV, the enrichment ratio was no more than 0.25.

Take TCCQ: the enrichment ratio is 12.5. Turning to GAKA, the enrichment ratio is no more than 0.25. Consider DCFI, for which the enrichment ratio is no more than 0.25. Consider PVKV, for which the enrichment ratio is no more than 0.25. On to THHD, for which the enrichment ratio is no more than 0.25. The result for WSLD reads no more than 0.25. Consider RTPG, for which the enrichment ratio was no more than 0.25. As for LTWE, the enrichment ratio is no more than 0.25. On to QRCD, for which the enrichment ratio is no more than 0.25.

With MGWN, the enrichment ratio was found to be 18.9. For HFAW, the enrichment ratio is no more than 0.25. Regarding HRQT, the enrichment ratio was no more than 0.25.

As to WIGK, the enrichment ratio is no more than 0.25. Take MFYW: the enrichment ratio was no more than 0.25. Take PYDD: the enrichment ratio was no more than 0.25. As for RYCS, the enrichment ratio is no more than 0.25. Regarding EPDR, the enrichment ratio was no more than 0.25. Take HCKN: the enrichment ratio is no more than 0.25. Consider SSWQ, for which the enrichment ratio came out at 3.41. For the variant KGTC, the enrichment ratio is no more than 0.25. For the variant EFAW, the enrichment ratio is no more than 0.25. Turning to YFYL, the enrichment ratio was no more than 0.25. As to LNGM, the enrichment ratio is no more than 0.25.

With STQW, the enrichment ratio is no more than 0.25.

For the variant MGEL, the enrichment ratio was no more than 0.25. The result for TYYK reads no more than 0.25.

SLIM: the enrichment ratio was no more than 0.25.

With RCSA, the enrichment ratio was no more than 0.25. The result for APLR reads no more than 0.25; that for KIAR, no more than 0.25; that for PLMH, no more than 0.25. MPSH: the enrichment ratio is no more than 0.25. In the case of PEND, the enrichment ratio is no more than 0.25. Regarding IWWS, the enrichment ratio was no more than 0.25. The result for TNKC reads no more than 0.25. The result for NMDG reads no more than 0.25. The result for MYQA reads no more than 0.25; that for VTFY, no more than 0.25. As to DSDR, the enrichment ratio is no more than 0.25. Consider YNNM, for which the enrichment ratio is no more than 0.25.

For the variant LRPH, the enrichment ratio was no more than 0.25. For IMRY, the enrichment ratio is no more than 0.25. Take WRLV: the enrichment ratio was no more than 0.25.

With PYAS, the enrichment ratio is no more than 0.25. As for VWPL, the enrichment ratio is no more than 0.25. On to ELVQ, for which the enrichment ratio is no more than 0.25.

Turning to MADS, the enrichment ratio is no more than 0.25. For HKYW, the enrichment ratio is no more than 0.25. Turning to HKHD, the enrichment ratio is no more than 0.25. The result for RGLT reads no more than 0.25; that for PFMS, no more than 0.25. With VMSI, the enrichment ratio is no more than 0.25.

EKSL: the enrichment ratio is no more than 0.25.

As for GNEW, the enrichment ratio was no more than 0.25. For the variant YKFY, the enrichment ratio is no more than 0.25.

With KRSP, the enrichment ratio was no more than 0.25. For WLTK, the enrichment ratio is no more than 0.25. Regarding SRTT, the enrichment ratio was no more than 0.25. Turning to GHCP, the enrichment ratio was no more than 0.25. As to YKNN, the enrichment ratio is no more than 0.25. Turning to GYLP, the enrichment ratio is no more than 0.25. Turning to YVTP, the enrichment ratio was no more than 0.25.

Regarding PTID, the enrichment ratio was no more than 0.25. PRPV: the enrichment ratio was no more than 0.25. Take EQPE: the enrichment ratio was no more than 0.25. The result for FHWN reads no more than 0.25. The result for ANYY reads no more than 0.25; that for HWHE, no more than 0.25. For the variant QCDQ, the enrichment ratio was no more than 0.25. Take HCSE: the enrichment ratio is no more than 0.25. The result for WDGV reads no more than 0.25; that for FKKI, no more than 0.25.

Take TDYC: the enrichment ratio was no more than 0.25. For HNEP, the enrichment ratio was no more than 0.25. With VDHV, the enrichment ratio was no more than 0.25. On to RCYV, for which the enrichment ratio is no more than 0.25. For the variant IQFI, the enrichment ratio is no more than 0.25. With FSKI, the enrichment ratio is no more than 0.25. NGIP: the enrichment ratio is no more than 0.25.

For YCCE, the enrichment ratio was no more than 0.25.

With DNVV, the enrichment ratio was no more than 0.25. For WFHA, the enrichment ratio was no more than 0.25. Take MVMP: the enrichment ratio is no more than 0.25. As for GLRY, the enrichment ratio was no more than 0.25. As for PLRN, the enrichment ratio was no more than 0.25. For the variant WMCT, the enrichment ratio was no more than 0.25.

HVYG: the enrichment ratio was no more than 0.25.

Consider VVYK, for which the enrichment ratio was no more than 0.25. For KIGT, the enrichment ratio is no more than 0.25. For the variant GGRW, the enrichment ratio is no more than 0.25. With RRKV, the enrichment ratio was no more than 0.25.

As to RKRM, the enrichment ratio is no more than 0.25. Turning to GFRV, the enrichment ratio is no more than 0.25. For the variant LLDW, the enrichment ratio is no more than 0.25. Turning to YNTH, the enrichment ratio is no more than 0.25. In the case of VMIQ, the enrichment ratio is no more than 0.25.

As for TWWG, the enrichment ratio was no more than 0.25. Regarding EHRP, the enrichment ratio was no more than 0.25.

For FTIQ, the enrichment ratio was no more than 0.25. Regarding PELS, the enrichment ratio is no more than 0.25. For the variant EEFC, the enrichment ratio was no more than 0.25. Regarding HGWC, the enrichment ratio is no more than 0.25. RLVL: the enrichment ratio is no more than 0.25. On to NAHY, for which the enrichment ratio was no more than 0.25. With AYCW, the enrichment ratio is no more than 0.25. For HPTD, the enrichment ratio is no more than 0.25. The result for HHNL reads no more than 0.25; that for VVLK, no more than 0.25. FRWN: the enrichment ratio is no more than 0.25. As to IWVG, the enrichment ratio was no more than 0.25. The result for YTPD reads no more than 0.25; that for PYIT, no more than 0.25. With QPWY, the enrichment ratio was no more than 0.25.
